From the supplement of paper PMC3334620
Over roughly 33,000 sequences, “E-score (-0.5 to 0.5)” has its median near -0.01; the highest 2% begin near 0.26. The list shows a part of the results.

What follows are sequences tested against Ste12 (UniProt P13574) (assay: PBM E-score (8-mer binding enrichment) (E-score (-0.5 to 0.5)); higher = stronger / more preferred TF binding; most listed sequences are background and not binding sites). Details: protein concentration: 200 nM; construct: GST-DNA-binding domain.
Procedure: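 Universal 'all 10-mer' protein binding microarrays (Agilent AMADID 015681) probed with GST-tagged S. cerevisiae TFs (full-length or DBD) made by in vitro transcription/translation (PURExpress), about 100-200 nM. Bound TF was detected with fluorescent anti-GST. Each ungapped 8-mer (which stands for itself and its reverse complement) is scored by the PBM enrichment score (E-score), a modified Wilcoxon-Mann-Whitney statistic from -0.5 to +0.5, computed with the Universal PBM Analysis Suite. Scale: above 0.35 generally sequence-specific binding.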

Sequence | PBM E-score
CGGTAACC | -0.0501
AGTGGCAC | -0.256
CCCTACCG | -0.148
CATACTGC | 0.0378
CAGGCGGG | 0.0689
TGGTAGAA | 0.0106
TAAAAGAA | 0.0708
ATCTACGC | 0.226
CAAGAATA | 0.149
CACAGCGG | -0.0416
AATAGGGA | 0.0663
GAACAATA | 0.226
GCTGGCAA | 0.146
ATTAGTGC | 0.0153
TCAGGCGA | 0.0318
CAGCACAG | -0.103
AGATCCGC | -0.11
ATGCCAAC | -0.0266
CAACGATA | 0.0594
AAATCTAG | -0.0397
GCGACTGA | -0.0821
GTGTTAGA | 0.0425
AGGAGTCG | -0.213
CTGGGCCA | -0.251
ATTATAAC | 0.172

Sequence | PBM E-score
ACTTGTTA | 0.16
ACCCGCAA | -0.203
CGAACCTA | -0.0226
CCTGGATC | -0.309
ATCTTCTC | 0.011
CTGCGCAG | -0.147
CTCACGCA | 0.125
CCATGCCC | -0.0778
CGTACAAA | -0.00753
AGACTAAA | 0.145
CACGCCAG | -0.163
ATCCGAGC | -0.0632
CCACGAAG | -0.0792
CTTTACCA | 0.0355
CCGTGCCG | -0.216
GTGAGATA | -0.0196
CCTGCCCG | -0.0386
AGAATGTG | -0.0534
CCGAGAGG | -0.101
GTTCGGGA | 0.0637
CAGCCTCG | 0.185
GAGCAAGA | -0.0519
GGTGTTTA | 0.182
CCGTCGCG | -0.144
AAATTTGT | 0.188

Sequence | PBM E-score
AGGAAGAT | 0.0601
GAGAAGAC | -0.146
ATTCCGTG | 0.0217
ACTATCTA | -0.0876
CAGAAGAG | 0.00034
GGGATATA | 0.0231
AGCCGGGC | -0.256
GAACAGAC | 0.0181
GTTGGGAA | -0.0234
ACATTCGA | 0.119
ATAATAAT | 0.126
AGCAGGAT | 0.0876
ACCCCCGC | -0.161
CGCTCAAC | -0.108
AAGTATCT | -0.0241
GCGCAGAA | 0.0586
GATGCTTA | -0.0965
AGTCAACC | 0.0595
GGCTGCAC | -0.238
GGCATTAA | 0.0709
AAACCTTG | 0.0436
TCCATCAA | 0.122
GGAGGTGA | 0.101
CGTAGGAG | -0.211
ACTGGTCC | -0.0777

Sequence | PBM E-score
CACGTCAG | -0.0714
ATAACTAA | 0.0714
ATGTTTAC | 0.234
GGTATAGA | 0.00136
AAAGTATT | 0.136
CGGTGTAA | 0.0759
CACGCGCC | 0.0271
GTGGGTAA | -0.118
ACTGAAGT | -0.12
GACAGGCA | 0.00399
ATTCGATC | 0.0704
AGCCCCGA | -0.0229
ATCATAAG | 0.0492
TAGGCCAA | -0.176
GAGCAGGC | -0.208
TACGCTGA | -0.101
GAGTCCCC | -0.265
ATCCAATC | 0.0994
ACTTAGAA | 0.0438
AGCACGGC | -0.0299
ACAGGAGT | -0.107
CAGCCTGA | 0.0275
CCCATAAA | -0.0663
ACTTTTAC | 0.263
ATGCAAAC | 0.149

Sequence | PBM E-score
ATTGACGA | 0.0585
GTCAGAGA | -0.188
TTATGGAA | 0.226
ACATGCAT | 0.0142
CCCACCGG | -0.155
GTGGATGA | -0.0758
GTGGGCTA | -0.163
AGAAGTCG | -0.0549
CATGTCTA | -0.0677
ATCCGGAG | 0.132
CGCCTGTA | -0.144
AATAAATG | 0.216
AAACAATG | 0.147
CGGCGAAA | 0.137
AATCTTAA | 0.0814
CGGGCTGA | -0.0192
AGACTTAA | -0.0839
AATGGTGA | 0.0094
GCCATAGA | -0.0934
AGAAATAA | 0.207
TCGGCCGA | 0.0948
TAGCTACA | -0.118
TAGCGAAA | 0.118
ACAGCTGT | -0.177
ATCAAAGC | 0.0652

Sequence | PBM E-score
ATGTGATG | -0.0518
CGCGGCGC | 0.125
ACATAGAT | -0.0265
CAAGAGAC | -0.112
ATCGCTGA | 0.0794
CCCCACAC | 0.0325
CCCCTTTC | -0.00455
TCACCGGA | -0.0172
GGAGAAAC | 0.137
ACCCATAC | 0.105
ACTGCCCT | -0.0493
AAAAAGGC | 0.107
AAAGTGCA | 0.00735
CTACCTCC | -0.09
AAGGAGGG | 0.0772
CAAACGGA | 0.0164
ACACTGCG | -0.00409
GAGACGCC | 0.111
GTAACTCA | -0.00566
AGACACGC | -0.163
AATGGTAT | 0.0905
AACTGAGT | -0.0272
CCTCCTCA | -0.0921
TCCAGACA | -0.06
GACTTGTA | -0.0715

Sequence | PBM E-score
AGCCCAGG | -0.201
GCAATCCA | -0.0316
GAAACTCA | 0.219
AAGAGCGA | 0.067
GTCATGAC | -0.136
ACCAAATG | 0.0275
ACCCTAGT | -0.0979
CGAAACAA | 0.349
ACCATATA | -0.034
GGGGTGCA | 0.0263
CGACTGCG | -0.0514
CGGATAAG | 0.0102
CGTGGCCC | -0.228
AATCTCGA | 0.011
TATCGGCA | -0.076
CCCCAATC | -0.0733
TTCAGCAA | 0.125
ACAACCGC | 0.0745
ACTCGGAA | 0.0844
GCAACAGC | -0.00451
CGGGAGTA | 0.0457
AATTTGAT | 0.0452
CGTCGCTC | -0.115
GGGCCCAC | -0.122
ACCGCTCA | -0.0178

Sequence | PBM E-score
ATTTCGAC | -0.0166
AAGCACGC | 0.12
GAAAGTTA | 0.159
CATGAGCG | -0.0776
GCCCTAGA | -0.18
GACCTATC | -0.0664
AATAAACT | 0.255
ACGTTGTC | -0.195
CGAGACAG | 0.0228
ATGAGTAG | -0.0227
TGCCCACA | -0.155
GCCCCGTA | -0.19
GGCCACTA | -0.218
CAACCCAA | -0.137
ACCAGGCT | -0.0491
GGTTGGAA | 0.222
TCCTACAA | 0.126
AGTCGCAG | -0.0962
CGTACAAC | -0.0913
ATGCACGC | -0.063
ATGCGGGC | 0.0501
CGGTGTTA | 0.0775
ACATCAGT | 0.0301
CAAGAAAC | 0.165
GTCCTGCA | -0.223

Sequence | PBM E-score
ACATTTCG | 0.034
ATGGTCCG | 0.0323
CCCCCCGA | -0.148
ACGTCAAT | -0.271
AAAATTTC | 0.0683
ATGCAGCA | -0.175
CAACGGTG | -0.0931
CACCGCGA | -0.0822
AAAACGCT | 0.0239
AGGAATTC | 0.0142
CAACTATA | 0.0452
ACCGTCCA | -0.0201
ACGGGGTG | 0.0476
TGAATTAA | 0.214
CCTTCACC | -0.0114
AGATTGGG | 0.0168
ACAAGCTA | -0.0518
CGACGGCC | -0.187
ACGAGCCG | 0.0111
CGATTTAC | 0.148
AATGTTTA | 0.174
ATTACCCA | 0.0293
TCTTATCA | 0.102
ACTAGGTC | -0.114
GATCGCCC | -0.0498

Sequence | PBM E-score
ATTCCATA | 0.0806
CCACCATC | -0.114
AAACTCAG | 0.0876
CGCCCGAA | 0.0436
GATGAAAA | 0.281
CTTCAACA | 0.0157
AAATGCTC | 0.127
CTTCTTAA | 0.0493
AGCAATTC | -0.0997
AGGGCGCG | -0.00647
CCTCAGTC | -0.199
AAAACACA | 0.198
AAAAAAAG | 0.294
TGGGCTAA | -0.0581
AACGGTCG | 0.0414
CCTCGGCG | 0.252
AGGAGCCC | -0.204
AAGTCGAC | 0.119
CTCTGATA | 0.028
CGCGCAGC | -0.115
CCTATTCG | -0.118
TAGCCCTA | -0.213
ACTCGGTA | -0.218
AAGATCAG | -0.0897
CTTTTCTC | 0.0641

Sequence | PBM E-score
ACTCTAGC | -0.282
CTGTGTCC | -0.0694
AACACGCT | 0.152
AATCATAC | 0.161
ACCGTCTA | -0.117
GAGCACGC | -0.137
AAAGTCGA | 0.0614
ATCCCCAA | 0.0874
CGACTATC | -0.197
ATAGAAAT | 0.207
GGCTCTCA | -0.339
CATACTTA | 0.0951
AGTGATTA | 0.1
AATCTGAC | 0.0332
CCCTCCGA | -0.0679
TAATGAGA | 0.168
CCTGGTCC | -0.205
CAAGTCTA | -0.00872
TAGGGCGA | -0.0892
GACGAGTA | 0.0549
AGAGTTAT | 0.0561
GACACAGC | -0.139
CCCCCGCC | -0.0801
CCAAGTAA | 0.161
GTGCCCAC | -0.173

Sequence | PBM E-score
CTTTTAGA | 0.0638
AACACCCC | 0.0348
CTTACGGC | -0.127
AAACCGGA | 0.22
CCGTCCTC | -0.157
AACCTTTA | -0.0276
GCTTTGCA | -0.264
CTGGCGCA | -0.0943
GGAACTAC | -0.105
CGGGAAGC | -0.0794
GAAAAACA | 0.21
CCCTGGCA | -0.13
TAGGAGGA | -0.0646
ACCTCAAA | 0.182
CACCCGCC | 0.258
ATAGTATG | -0.00467
ATAACCTC | -0.171
CAGTGTAG | 0.081
ACTTACGA | -0.0319
AGGGTGGA | -0.218
CAGCATGA | -0.0518
AAATATCT | 0.102
ACCGGGTA | 0.107
AAGACACA | -0.0313
GTCCCGAA | -0.125

Sequence | PBM E-score
CGTCCAAC | 0.11
CTAGGCTC | -0.319
ACCGCGTG | -0.261
GCTCACAA | -0.185
ATATATAT | 0.244
ATATCAAC | 0.141
AGAACGAG | -0.142
TCCAGGCA | 0.102
CGATGTCA | -0.119
AACGCTAG | -0.132
CCATCATC | 0.014
ACGTCTCT | 0.00481
AAAGATTC | 0.177
AAGGTGAC | -0.172
GTCGCAAC | 0.194
CTAACATA | 0.0668
GGATAATA | 0.195
GTGCCTCA | -0.00805
GGTGGAAA | -0.076
CACAAAGA | 0.111
GGCTTCGA | -0.0257
ACGTAGAT | 0.103
GATTCCAC | 0.133
AGGACCAC | -0.267
GTCCTTTA | -0.00228

Sequence | PBM E-score
GGCGGGAC | 0.132
ACCTCGTC | 0.0514
CGCGCCAG | 0.0273
GGTAAAAA | 0.191
GCTAAAGA | 0.129
TCTGATAA | 0.0748
TATCCAAA | 0.0767
AAGGACAC | -0.0784
ACTGTCGC | -0.0231
CAATACTC | 0.0738
ATGAGCTC | 0.0901
CGATGGGC | -0.0527
CTCTGTTC | 0.0445
CTAGAAAA | 0.122
CACGCGGC | -0.101
AGTCGTAA | 0.16
GCCACGGC | -0.00283
GGGAGCAA | -0.169
GCTCCAGC | -0.00287
